Measured values as given in PubChem BioAssay AID1347165 (National Center for Advancing Translational Sciences (NCATS), 2019).
Out of some 220,000 compounds screened, about 5,700 (2.6%) were called active. The shares of active, inactive and inconclusive entries below differ from those in the screen. The call rests on the fitted dose curve; in most records, active means well fitted inhibition curve with a large enough effect; inconclusive means small, poorly fitted or top-dose-only effect; inactive means no such curve, though single readings can be large or run the other way. Potencies beside an inconclusive call are fits to weak or partial responses and may not hold up.

What follows are compounds tested against Lysine-specific demethylase 5B (Homo sapiens) (UniProt Q9UGL1) (assay: Primary screen for KDM5B Histone Demethylases FDH-coupled qHTS). Settings: FDH-coupled NADH fluorescence (FDH is formaldehyde dehydrogenase); series mostly up to 57.7 µM.
Procedure, shortened: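 Inhibition is measured as reduced NADH fluorescence generation from FDH coupling to formaldehyde release. Truncated KDM5BΔAP at 200 nM final acts on H3K4me3 peptide (12.5 µM in substrate mix) in pH 7.5 HEPES buffer with Tween-20, 30 min, room temperature.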
Further: nearly all actives have a fitted effect of over 70% in size.
Potency means the concentration at half of the fitted maximal effect; tags describe the fitted curve by direction and shape.

Sequence of UniProt Q9UGL1 (Q9UGL1 whole entry, looked up, the tested form may be a part): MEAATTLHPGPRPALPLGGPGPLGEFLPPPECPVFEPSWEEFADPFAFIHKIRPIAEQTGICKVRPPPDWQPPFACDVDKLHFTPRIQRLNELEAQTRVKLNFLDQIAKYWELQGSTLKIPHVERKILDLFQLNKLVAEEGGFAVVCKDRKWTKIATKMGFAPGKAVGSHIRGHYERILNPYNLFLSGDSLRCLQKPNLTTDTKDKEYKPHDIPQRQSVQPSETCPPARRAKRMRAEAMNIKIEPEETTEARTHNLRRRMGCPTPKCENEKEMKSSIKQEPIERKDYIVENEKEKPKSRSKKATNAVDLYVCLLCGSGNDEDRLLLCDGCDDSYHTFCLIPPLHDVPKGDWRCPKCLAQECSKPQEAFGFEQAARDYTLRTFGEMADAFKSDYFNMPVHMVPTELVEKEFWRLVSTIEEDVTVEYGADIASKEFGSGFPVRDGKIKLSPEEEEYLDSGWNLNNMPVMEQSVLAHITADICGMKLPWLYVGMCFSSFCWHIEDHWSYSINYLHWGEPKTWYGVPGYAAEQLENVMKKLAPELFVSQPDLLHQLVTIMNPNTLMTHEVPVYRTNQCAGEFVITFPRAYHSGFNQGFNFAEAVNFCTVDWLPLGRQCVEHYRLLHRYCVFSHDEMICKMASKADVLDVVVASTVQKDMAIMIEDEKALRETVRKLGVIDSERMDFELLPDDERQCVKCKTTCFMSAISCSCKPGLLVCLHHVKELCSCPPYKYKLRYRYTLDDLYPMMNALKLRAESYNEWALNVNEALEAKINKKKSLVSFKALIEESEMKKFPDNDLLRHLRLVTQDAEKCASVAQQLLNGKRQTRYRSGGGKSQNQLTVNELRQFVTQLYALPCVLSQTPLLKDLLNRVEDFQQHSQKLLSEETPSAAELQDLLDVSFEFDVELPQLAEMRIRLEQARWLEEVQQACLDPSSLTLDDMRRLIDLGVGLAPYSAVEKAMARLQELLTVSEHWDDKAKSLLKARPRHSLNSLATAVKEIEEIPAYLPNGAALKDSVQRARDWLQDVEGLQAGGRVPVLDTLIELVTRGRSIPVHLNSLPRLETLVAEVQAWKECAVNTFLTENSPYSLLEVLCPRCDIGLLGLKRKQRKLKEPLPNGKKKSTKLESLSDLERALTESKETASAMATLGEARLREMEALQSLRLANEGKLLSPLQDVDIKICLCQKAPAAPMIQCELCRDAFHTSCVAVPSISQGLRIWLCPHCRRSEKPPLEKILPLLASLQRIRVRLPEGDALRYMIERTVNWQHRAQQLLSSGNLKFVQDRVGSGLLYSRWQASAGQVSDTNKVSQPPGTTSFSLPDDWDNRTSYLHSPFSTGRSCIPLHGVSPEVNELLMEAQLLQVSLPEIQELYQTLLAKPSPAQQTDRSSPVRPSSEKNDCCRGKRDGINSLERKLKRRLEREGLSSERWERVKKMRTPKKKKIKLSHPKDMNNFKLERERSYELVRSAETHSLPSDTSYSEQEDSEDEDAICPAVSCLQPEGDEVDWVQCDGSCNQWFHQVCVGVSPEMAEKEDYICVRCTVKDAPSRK

Row | SMILES | Potency
1 | Cc1cccc(Nc2nc(N)c(C(=O)c3ccc(Cl)cc3)s2)c1C | inactive
2 | COc1ccccc1N1CCCc2ncc(C(=O)NCc3cccc(Cl)c3)cc21 | active: 31.6 µM
3 | O=C(Nc1ccc(Br)cc1)C1CCN(c2cnccn2)CC1 | inconclusive: 39.8 µM [inhibitor, partial curve, poor fit]
4 | Cc1sc2nc(C(C)Sc3nnnn3C3CC3)[nH]c(=O)c2c1C (stereo unspecified) | inactive
5 | CCCCCn1nc(C(=O)Nc2ccc(C(C)=O)cc2)c2ccccc2c1=O | inactive
6 | CCOc1ccc(N2CC(C(=O)Nc3ccc(C)cn3)CC2=O)cc1 (stereo unspecified) | inactive
7 | COC(=O)C(C)Oc1ccc2c(C)c(-c3ccc(Cl)cc3)c(=O)oc2c1 (stereo unspecified) | inconclusive: 14.1 µM [inhibitor, partial curve, poor fit]
8 | COc1ccc(OCC2(C)COc3ccc(C(=O)NCc4cccc(F)c4)cc3N2)cc1 (stereo unspecified) | active: 31.6 µM
9 | CN(CC1CCOC1)S(=O)(=O)c1cccc(Br)c1 (stereo unspecified) | inactive
10 | Cn1cc(Nc2ccc(Cl)cc2)c2nc(CN3CC[S+](=O)([O-])CC3)cn2c1=O | active: 28.2 µM
11 | Cc1ccc(-c2c(C(=O)O)c3ccccc3[nH]c2=O)cc1 | inconclusive: 39.8 µM [inhibitor, single point]
12 | COc1cc2c(cc1OC)C(CNC(=O)CC(C)C)N(C(=O)NC(C)C)CC2 (stereo unspecified) | inconclusive: 25.1 µM [inhibitor, partial curve, poor fit]
13 | CCN1CCN(CCNC(=O)CN2CC3CC(C2)[C@H]2CCCC(=O)N2C3)CC1 (stereo partly specified) | inactive
14 | CCCS(=O)(=O)N1CCCN(S(=O)(=O)c2ccccc2)CCC(=O)NCC1 | inconclusive: 20 µM [inhibitor, partial curve, poor fit]
15 | COc1ccc(NC(=O)c2c(NCc3ccc(C)o3)sc3c2CCC(C)C3)c(OC)c1 (stereo unspecified) | inconclusive: 17.8 µM [inhibitor, partial curve, poor fit]
16 | COc1ccc(CN2CCNc3cnc(Nc4ccccc4)cc3C2)cn1 | active: 35.5 µM
17 | CCN(CC)C(=O)c1c(C)sc2ccn(Cc3ccc(F)cc3)c(=O)c12 | active: 25.1 µM
18 | Cn1c(=O)oc2cc(S(=O)(=O)CCC(=O)N3CCN(c4ccccc4)CC3)ccc21 | inconclusive: 25.1 µM [inhibitor, single point]
19 | COCc1ccc(C(=O)N[C@@H]2COCC[C@@H]2OCc2c(C)noc2C)o1 | inactive
20 | Cc1nc(Oc2ccc(F)cc2)c2c(C)c(C)sc2n1 | inconclusive: 25.1 µM [inhibitor, single point]
21 | COc1ccc(OC)c(S(=O)(=O)N2CCCCCCNC(=O)[C@@H]3CCC[C@@H]32)c1 | inactive
22 | N#Cc1ccc(OCC(=O)c2ccc3c(c2)CCCC3)cc1 | inactive
23 | O=C(NCc1ccc2c(c1)OCO2)c1nc(-c2cccc(C(F)(F)F)c2)c2ccccn12 | active: 11.2 µM

Row | SMILES | Potency
24 | Cn1c([C@H]2CCN(S(=O)(=O)c3cccc4cccnc34)C2)nc2ccccc21 | inconclusive: 31.6 µM [inhibitor, single point]
25 | COc1nccnc1NC1CCN(C(=O)c2ccccc2C)CC1 | active: 28.2 µM
26 | COc1ccc(CN2CC(Oc3ccc(F)c(F)c3)C2)cc1 | inactive
27 | CCN(CC)S(=O)(=O)c1cc(NS(=O)(=O)c2ccc(C)cc2C)ccc1C | inactive
28 | Cc1sc(NC(=O)c2ccc(CN(C)C)cc2)nc1-c1ccc(Br)cc1 | inactive
29 | O=S(=O)(c1ccccc1Cl)N1CC(c2nc(Cc3ccccc3)no2)C1 | inactive
30 | COc1cccc(N2CCN(C(=O)C3CCN(S(=O)(=O)c4ccc5c(c4)oc(=O)n5C)CC3)CC2)c1 | inconclusive: 25.1 µM [inhibitor, partial curve, poor fit]
31 | O=C(NC1CCN(c2cc(-c3ccccc3)[nH]n2)C1)c1ccc(Br)cc1 (stereo unspecified) | inactive
32 | O=C(c1cnccn1)N1CCC(Cc2nc(C3CCOCC3)no2)CC1 | inconclusive: 28.2 µM [inhibitor, single point]
33 | CN(Cc1ccc2nonc2c1)C(=O)c1cccc(CC2CCNCC2)c1 | inactive
34 | CCOC(=O)C1=C(C)Nc2ccccc2S1 | inconclusive: 28.2 µM [inhibitor, partial curve, poor fit]
35 | CCn1ncc(N2CCC(NC(=O)c3cccc(OC)c3OC)CC2)cc1=O | inactive
36 | COc1ccccc1CNC(=O)c1ccc(-c2nc(CN3CCc4ccccc43)c(C)o2)cc1 | inconclusive: 11.2 µM [inhibitor, partial curve, poor fit]
37 | COc1cc(-c2ccnc3nc(C4CCCCC4)nn23)cc(OC)c1OC | active: 25.1 µM
38 | COC(=O)/C(C#N)=C\c1cc(Br)ccc1OCc1c(Cl)cccc1Cl | inactive
39 | COc1ccc(CCNC(=O)Cc2c(C)c3ccc(O)c(C)c3oc2=O)cc1 | inconclusive: 11.2 µM [inhibitor, partial curve, poor fit]
40 | COc1ccc(-c2c(C)c3ccc(OC(=O)C(C)C)cc3oc2=O)cc1OC | inconclusive: 31.6 µM [inhibitor, single point]
41 | COC[C@@]12CC[C@@H](N3CCOCC3)C[C@H]1CCN(Cc1cnc(N(C)C)nc1)C2 | inconclusive: 35.5 µM [inhibitor, partial curve, poor fit]
42 | O=C(Nc1ccc(S(=O)(=O)Nc2cnc3ccccc3n2)cc1)c1ccc(Cl)cc1Cl | inconclusive: 39.8 µM [inhibitor, partial curve, poor fit]
43 | O=C1COc2ccc(NCc3cccs3)nc2CN1Cc1ccc(F)cc1 | inconclusive: 28.2 µM [inhibitor, single point]
44 | COc1ccc(CNC(=O)NCC23CCCC=C2NC(=O)CC3)cc1 (stereo unspecified) | inconclusive: 22.4 µM [inhibitor, partial curve]
45 | CCC(=O)N1CCc2cc(Br)cc(S(=O)(=O)N3CCCC(C(=O)N(C)c4ccc(Br)cc4)C3)c21 (stereo unspecified) | inconclusive: 1.26 µM [inhibitor, full curve, poor fit]
46 | Cn1cccc1CN1CCCC(COc2ccccc2C(=O)N2CCCCC2)C1 (stereo unspecified) | inconclusive: 10 µM [inhibitor, partial curve]
